# Test results reported in the supplement of paper PMC8728848.
# Some of the results follow.
# B1: AFCNVH (Aspergillus fumigatus) (protein)
# chain: MSLRGFHTTCDTIVLKDKHILSSRCKRPDGTYSFSEIDLNDCLGNNNGKFVWGGESFVDSASQVNLALEGGEGRPMLHAQLNDWHGSVQSASVNLGECIQNEAGGLEYMHC
# Key:
# Assay in all cases: glycan array binding signal (z-score within array); higher = stronger binding
# Settings in all cases: glycan notation: IUPAC condensed, linker removed
# [1] = biological target: Gal(b1-4)GlcNAc(b1-3)Gal(b1-4)GlcNAc(b1-3)[Gal(b1-4)GlcNAc(b1-3)Gal(b1-4)GlcNAc(b1-6)]GalNAc
# Procedure, shortened: (§1)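 Columns mapping to the same glycan were averaged after glycan names were converted to IUPAC-condensed notation. The data come from 3228 arrays in the Consortium for Functional Glycomics database, limited to those with an available protein sequence. Binding is reported as a within-array Z-score averaged across arrays of one protein sequence and across linkers.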
# [2] = biological target: Gal(b1-4)GlcNAc(b1-3)Gal(b1-4)GlcNAc(b1-6)[Gal(b1-3)]GalNAc
# Procedure, shortened: as §1
# [3] = biological target: Gal(b1-4)GlcNAc(b1-3)Gal(b1-4)[Fuc(a1-3)]GlcNAc(b1-3)Gal(b1-4)[Fuc(a1-3)]GlcNAc
# Procedure, shortened: as §1
# [4] = biological target: Gal(b1-4)GlcNAc(b1-3)GalNAc
# Procedure, shortened: as §1
# [5] = biological target: Gal(b1-4)GlcNAc(b1-3)[Fuc(a1-3)GlcNAc(b1-6)]Gal(b1-4)Glc
# Procedure, shortened: as §1
# [6] = biological target: Gal(b1-4)GlcNAc(b1-3)[Gal(b1-4)GlcNAc(b1-6)]Gal(b1-4)GlcNAc
# Procedure, shortened: as §1
# [7] = biological target: Gal(b1-4)GlcNAc(b1-3)[GlcNAc(b1-6)]Gal(b1-4)GlcNAc
# Procedure, shortened: as §1
# [8] = biological target: Gal(b1-4)GlcNAc(b1-6)Gal(b1-4)GlcNAc
# Procedure, shortened: as §1
# [9] = biological target: Gal(b1-4)GlcNAc(b1-6)GalNAc
# Procedure, shortened: as §1
# [10] = biological target: Gal(b1-4)GlcNAc(b1-6)[Gal(b1-3)]GalNAc
# Procedure, shortened: as §1
# [11] = biological target: Gal(b1-4)GlcNAc(b1-6)[Gal(b1-4)GlcNAc(b1-3)]GalNAc
# Procedure, shortened: as §1
# Gal(b1-4)GlcNAc6P = biological target: Gal(b1-4)GlcNAc6P
# Procedure, shortened: as §1
# Gal(b1-6)Gal = biological target: Gal(b1-6)Gal
# Procedure, shortened: as §1
# Gal3S(b1-3)GalNAc = biological target: Gal3S(b1-3)GalNAc
# Procedure, shortened: as §1
# Gal3S(b1-3)GlcNAc = biological target: Gal3S(b1-3)GlcNAc
# Procedure, shortened: as §1
# [12] = biological target: Gal3S(b1-3)[Fuc(a1-4)]GlcNAc
# Procedure, shortened: as §1
# Gal3S(b1-4)Glc = biological target: Gal3S(b1-4)Glc
# Procedure, shortened: as §1
# Gal3S(b1-4)Glc6S = biological target: Gal3S(b1-4)Glc6S
# Procedure, shortened: as §1
# Gal3S(b1-4)GlcNAc = biological target: Gal3S(b1-4)GlcNAc
# Procedure, shortened: as §1
# [13] = biological target: Gal3S(b1-4)[Fuc(a1-3)]Glc6S
# Procedure, shortened: as §1
# [14] = biological target: Gal3S(b1-4)[Fuc(a1-3)]GlcNAc
# Procedure, shortened: as §1
# [15] = biological target: Gal3S(b1-4)[Fuc(a1-3)]GlcNAc6S
# Procedure, shortened: as §1
# Gal3S4S(b1-4)GlcNAc = biological target: Gal3S4S(b1-4)GlcNAc
# Procedure, shortened: as §1
# Gal3S6S(b1-4)GlcNAc = biological target: Gal3S6S(b1-4)GlcNAc
# Procedure, shortened: as §1
# Gal3S6S(b1-4)GlcNAc6S = biological target: Gal3S6S(b1-4)GlcNAc6S
# Procedure, shortened: as §1
# Gal4S(b1-4)GlcNAc = biological target: Gal4S(b1-4)GlcNAc
# Procedure, shortened: as §1
# Gal4S6S(b1-4)GlcNAc = biological target: Gal4S6S(b1-4)GlcNAc
# Procedure, shortened: as §1
# Gal6P(b1-4)GlcNAc = biological target: Gal6P(b1-4)GlcNAc
# Procedure, shortened: as §1
# Gal6S(b1-3)GlcNAc = biological target: Gal6S(b1-3)GlcNAc
# Procedure, shortened: as §1
# Gal6S(b1-3)GlcNAc6S = biological target: Gal6S(b1-3)GlcNAc6S
# Procedure, shortened: as §1
# Gal6S(b1-4)Glc = biological target: Gal6S(b1-4)Glc
# Procedure, shortened: as §1
# Gal6S(b1-4)Glc6S = biological target: Gal6S(b1-4)Glc6S
# Procedure, shortened: as §1
# Gal6S(b1-4)GlcNAc = biological target: Gal6S(b1-4)GlcNAc
# Procedure, shortened: as §1
# Gal6S(b1-4)GlcNAc6S = biological target: Gal6S(b1-4)GlcNAc6S
# Procedure, shortened: as §1
# GalNAc(a1-3)Gal = biological target: GalNAc(a1-3)Gal
# Procedure, shortened: as §1
# GalNAc(a1-3)GalNAc = biological target: GalNAc(a1-3)GalNAc
# Procedure, shortened: as §1
# [16] = biological target: GalNAc(a1-3)GalNAc(b1-3)Gal(a1-4)Gal(b1-4)Glc
# Procedure, shortened: as §1
# [17] = biological target: GalNAc(a1-3)GalNAc(b1-3)Gal(a1-4)Gal(b1-4)GlcNAc
# Procedure, shortened: as §1
# GalNAc(b1-3)Gal = biological target: GalNAc(b1-3)Gal
# Procedure, shortened: as §1
# [18] = biological target: GalNAc(b1-3)Gal(a1-4)Gal(b1-4)GlcNAc
# Procedure, shortened: as §1
# [19] = biological target: GalNAc(b1-3)Gal(a1-4)Gal(b1-4)GlcNAc(b1-3)Gal(b1-4)Glc
# Procedure, shortened: as §1
# [20] = biological target: GalNAc(b1-3)Gal(a1-6)Gal(b1-4)Glc
# Procedure, shortened: as §1
# GalNAc(b1-3)GalNAc = biological target: GalNAc(b1-3)GalNAc
# Procedure, shortened: as §1
# GalNAc(b1-3)GlcNAc = biological target: GalNAc(b1-3)GlcNAc
# Procedure, shortened: as §1
# GalNAc(b1-4)Gal(b1-4)Glc = biological target: GalNAc(b1-4)Gal(b1-4)Glc
# Procedure, shortened: as §1
binder,measurement,setting,value
B1,glycan array binding signal (z-score),[1],-0.168
same,glycan array binding signal (z-score),[2],-0.201
same,glycan array binding signal (z-score),[3],-0.254
same,glycan array binding signal (z-score),[4],-0.361
same,glycan array binding signal (z-score),[5],-0.451
same,glycan array binding signal (z-score),[6],-0.411
same,glycan array binding signal (z-score),[7],4.53
same,glycan array binding signal (z-score),[8],0.078
same,glycan array binding signal (z-score),[9],2.35
same,glycan array binding signal (z-score),[10],-0.092
same,glycan array binding signal (z-score),[11],-0.368
same,glycan array binding signal (z-score),Gal(b1-4)GlcNAc6P,-0.305
same,glycan array binding signal (z-score),Gal(b1-6)Gal,-0.308
same,glycan array binding signal (z-score),Gal3S(b1-3)GalNAc,-0.454
same,glycan array binding signal (z-score),Gal3S(b1-3)GlcNAc,-0.342
same,glycan array binding signal (z-score),[12],-0.423
same,glycan array binding signal (z-score),Gal3S(b1-4)Glc,-0.422
same,glycan array binding signal (z-score),Gal3S(b1-4)Glc6S,-0.422
same,glycan array binding signal (z-score),Gal3S(b1-4)GlcNAc,-0.451
same,glycan array binding signal (z-score),[13],-0.201
same,glycan array binding signal (z-score),[14],-0.11
same,glycan array binding signal (z-score),[15],-0.387
same,glycan array binding signal (z-score),Gal3S4S(b1-4)GlcNAc,-0.005
same,glycan array binding signal (z-score),Gal3S6S(b1-4)GlcNAc,-0.196
same,glycan array binding signal (z-score),Gal3S6S(b1-4)GlcNAc6S,-0.301
same,glycan array binding signal (z-score),Gal4S(b1-4)GlcNAc,-0.404
same,glycan array binding signal (z-score),Gal4S6S(b1-4)GlcNAc,-0.314
same,glycan array binding signal (z-score),Gal6P(b1-4)GlcNAc,-0.456
same,glycan array binding signal (z-score),Gal6S(b1-3)GlcNAc,-0.334
same,glycan array binding signal (z-score),Gal6S(b1-3)GlcNAc6S,-0.401
same,glycan array binding signal (z-score),Gal6S(b1-4)Glc,-0.435
same,glycan array binding signal (z-score),Gal6S(b1-4)Glc6S,-0.557
same,glycan array binding signal (z-score),Gal6S(b1-4)GlcNAc,-0.448
same,glycan array binding signal (z-score),Gal6S(b1-4)GlcNAc6S,-0.246
same,glycan array binding signal (z-score),GalNAc(a1-3)Gal,0.388
same,glycan array binding signal (z-score),GalNAc(a1-3)GalNAc,-0.428
same,glycan array binding signal (z-score),[16],-0.347
same,glycan array binding signal (z-score),[17],-0.151
same,glycan array binding signal (z-score),GalNAc(b1-3)Gal,-0.243
same,glycan array binding signal (z-score),[18],0.245
same,glycan array binding signal (z-score),[19],-0.316
same,glycan array binding signal (z-score),[20],-0.462
same,glycan array binding signal (z-score),GalNAc(b1-3)GalNAc,2.28
same,glycan array binding signal (z-score),GalNAc(b1-3)GlcNAc,-0.335
same,glycan array binding signal (z-score),GalNAc(b1-4)Gal(b1-4)Glc,-0.408
